Laboratory results taken from the RNAGym collection of RNA variant scans (doi:10.7554/elife.90254).
Read counts are not given, so values of variants with three or more changes are uncertain.

B1: LINE1-mini (parent)
chain: GGCAGAGCUCAACACAGCGUGGCAAAGUGGCUGUGGCUAGACUGCC

Variants of: B1
Test: self-cleavage, relative activity (ratio to wild type); higher = more cleavage; in vitro, sequencing; the parent is a self-cleaving ribozyme
Work on A4U G35U C42A yielded a self-cleavage of 0.18. In the case of A4U U9A A11U C18G G40U C45A, the self-cleavage is reported as 0.01. A4U U9A A25C C46U gave a self-cleavage of 0.18. For A4U U9A C37U, the self-cleavage was 0.11. A4U U9A U20G G27U G30C C46A showed a self-cleavage of 0.35. For A4U U9C C10U A24G G33U, the self-cleavage was 0.01. With A4U U9C C13U G21C the self-cleavage was 0.08. Work on A4U U9G C15U A41C yielded a self-cleavage of 0.09. For A4U U9G C42G, the self-cleavage was 0.05. With A4U U9G U20C G29C the self-cleavage was 0.03. Work on A4U U9G U38G U43C C46U yielded a self-cleavage of 0.18. In the case of A4U U20C C42G, the self-cleavage is reported as 0.06. Work on A4U U20G G27C G30A G40U yielded a self-cleavage of 0.01. In the case of A4U U28G C42A, the self-cleavage is reported as 0.05. Variant A4U U28G G33A has a self-cleavage of 0.07. In the case of A4U U28G G35A, the self-cleavage is reported as 0.05. With A4U U32A G33C U43C the self-cleavage was 0.02. Variant A4U U34A C42A has a self-cleavage of 0.05. With A4U U43C C45G the self-cleavage was 0.02. Variant G5A A6C C13U has a self-cleavage of 0.03. Variant G5A A6C C15U C37A U38C G44A has a self-cleavage of 0.04. G5A A6C U20C U43G showed a self-cleavage of 0. In the case of G5A A6G A14U A16C C18G A25G G27C U32G, the self-cleavage is reported as 0.08. G5A A6G C31A showed a self-cleavage of 0.06. Variant G5A A6G G22A has a self-cleavage of 0.05. In the case of G5A A6U A16U U34A G35A A39U C46U, the self-cleavage is reported as 0.23. Work on G5A A6U C8A A14C G30U A39G yielded a self-cleavage of 0.11. G5A A6U C8U A16C U43C gave a self-cleavage of 0.07. Variant G5A A6U C15A G21C has a self-cleavage of 0.07. G5A A6U G29C U34A gave a self-cleavage of 0.03. G5A A11C A16C C18A C37A gave a self-cleavage of 0. In the case of G5A A11C A24U C45G, the self-cleavage is reported as 0.02. G5A A11C A25U G44C showed a self-cleavage of 0.03. With G5A A11C C15G U20A U32C the self-cleavage was 0.01. G5A A11C G19A G22U showed a self-cleavage of 0.03. Work on G5A A11C G27U G40A G44A C46A yielded a self-cleavage of 0.01. Variant G5A A11C U28A G30A C31A U34C C45U has a self-cleavage of 0.01. G5A A11G C31U showed a self-cleavage of 0.02. In the case of G5A A11U C13G, the self-cleavage is reported as 0.01. With G5A A11U C23U A25C A26C U28G C42G the self-cleavage was 0. In the case of G5A A11U G27A G40A, the self-cleavage is reported as 0.02. Work on G5A A11U U20A U32G U38G yielded a self-cleavage of 0.01. Variant G5A A12C A16G G17U C18U has a self-cleavage of 0.02. Variant G5A A12C G17U A25U G35U has a self-cleavage of 0.01. G5A A12C G21C gave a self-cleavage of 0.07. G5A A12C G22A G33U showed a self-cleavage of 0.02. With G5A A12C U43C the self-cleavage was 0.04. With G5A A12U G35A C42A the self-cleavage was 0.09. With G5A A14G U32G C42A the self-cleavage was 0.03. Variant G5A A14U C23U U32G U34C has a self-cleavage of 0.7. G5A A16C C37A U43C gave a self-cleavage of 0.02. With G5A A16U C45G the self-cleavage was 0.04. G5A A24C G30C showed a self-cleavage of 0.05. For G5A A24G G33U, the self-cleavage was 0.07. Work on G5A A24U G29U yielded a self-cleavage of 0.13. Variant G5A A24U G35A has a self-cleavage of 0.03. Work on G5A A24U G36A C45U yielded a self-cleavage of 0.08. Variant G5A A24U U28A has a self-cleavage of 0.03. In the case of G5A A24U U34A U38G, the self-cleavage is reported as 0.04. For G5A A25C G35U, the self-cleavage was 0.16. Variant G5A A25C G36A G40C has a self-cleavage of 0.08. For G5A A25G A39G A41C U43C, the self-cleavage was 0.04. With G5A A25G G36U C37G the self-cleavage was 0.01. For G5A A26C G30A C37U G40C G44A, the self-cleavage was 0.07. G5A A26U U28A gave a self-cleavage of 0.02. For G5A C8A A12C, the self-cleavage was 0.15. Variant G5A C8A A16U C18U C42U has a self-cleavage of 0.21. With G5A C8A C10A G30C G33U the self-cleavage was 0.05. In the case of G5A C8A C10G G27C, the self-cleavage is reported as 0.02. Variant G5A C8A C15A C31G C46G has a self-cleavage of 0.45. Variant G5A C8A G17C U20C G27A has a self-cleavage of 0.34. With G5A C8A G40U the self-cleavage was 2.94. With G5A C8A U9G G19C C23U G36U C45G the self-cleavage was 0.33. In the case of G5A C8A U9G U34A C37G, the self-cleavage is reported as 0.68. For G5A C8G A26C G30U U34G, the self-cleavage was 0.07. G5A C8G C13G G17A G22U G30U gave a self-cleavage of 0.01. G5A C8G G19C G22C G35U U38G gave a self-cleavage of 0.02. Variant G5A C8U A14U C42G has a self-cleavage of 0.33. G5A C8U C10A showed a self-cleavage of 0.01. Work on G5A C8U C18A A26C U28C C31G yielded a self-cleavage of 0.01. G5A C8U C18U C23U A25U G29A gave a self-cleavage of 0.09. In the case of G5A C8U G17U C18A U20C A26C U38C G44A C46A, the self-cleavage is reported as 0.14. G5A C8U U9A showed a self-cleavage of 0.38. With G5A C8U U9A G17C G19A G27U G30C U43A G44U the self-cleavage was 0.18. G5A C10A A11G C15G A25G showed a self-cleavage of 0.01. With G5A C10A A11G G21U C42U the self-cleavage was 0.02. Variant G5A C10A A12G G29U has a self-cleavage of 0.01. With G5A C10A C15A A25G G27C C42A C46U the self-cleavage was 0.05. Work on G5A C10A C15U C18A G29C G40C yielded a self-cleavage of 0.06. With G5A C10A G22A G33C C46A the self-cleavage was 0.04. G5A C10A U43C showed a self-cleavage of 0.01. Work on G5A C10G A16U G27A G36U G40A U43G yielded a self-cleavage of 0.01. In the case of G5A C10G G29C, the self-cleavage is reported as 0.04. Variant G5A C10G U38C has a self-cleavage of 0.01. Variant G5A C10U C13G G17C A25G has a self-cleavage of 0.05. In the case of G5A C10U C31U U32G G35U, the self-cleavage is reported as 0.19. Variant G5A C10U C46U has a self-cleavage of 0.14. With G5A C10U G29C the self-cleavage was 0.06. Variant G5A C10U G29C G30A has a self-cleavage of 0.04. In the case of G5A C10U U28A C46U, the self-cleavage is reported as 0.06. Variant G5A C13A G21C G35C C45A has a self-cleavage of 0.36. G5A C13A G29C gave a self-cleavage of 0.03. In the case of G5A C13A G35A C42U G44U, the self-cleavage is reported as 0.4. In the case of G5A C13G A14G C15G, the self-cleavage is reported as 0.05. In the case of G5A C13G G30A C46G, the self-cleavage is reported as 0.05. In the case of G5A C13G U43A, the self-cleavage is reported as 0.04. Work on G5A C13U G36C U38A yielded a self-cleavage of 0.06. With G5A C13U U20A G33C the self-cleavage was 0.04. Variant G5A C15A A24U has a self-cleavage of 0.05. In the case of G5A C15A C46A, the self-cleavage is reported as 0. G5A C15A G30A C42A gave a self-cleavage of 0.03. Variant G5A C15G A41U has a self-cleavage of 0.07. Variant G5A C15G C18A C37A U43A has a self-cleavage of 0.01. In the case of G5A C15G C18A G36U, the self-cleavage is reported as 0.02. In the case of G5A C15G C37U, the self-cleavage is reported as 0.09. In the case of G5A C15U A16C G27U, the self-cleavage is reported as 0.07. Work on G5A C15U G17A G29C yielded a self-cleavage of 0.04. In the case of G5A C15U G27A G33A, the self-cleavage is reported as 0.03. Variant G5A C15U G44U has a self-cleavage of 0.13. G5A C18A C23U gave a self-cleavage of 0.1. G5A C18A G19A gave a self-cleavage of 0.1. In the case of G5A C18A G19A U20A U28C G30U, the self-cleavage is reported as 0.1. With G5A C18A G19C G30A the self-cleavage was 0.23. For G5A C18A G19U G22A C45A, the self-cleavage was 0.16. Work on G5A C18A G22A C23U A24G U43G yielded a self-cleavage of 0.03. Work on G5A C18A G35U yielded a self-cleavage of 0.1. Variant G5A C18G G22U has a self-cleavage of 0.07. In the case of G5A C18G U34C G40U U43A, the self-cleavage is reported as 0.01. In the case of G5A C18U A26U G33C A39C, the self-cleavage is reported as 0.03. With G5A C18U A41G the self-cleavage was 0.04. G5A C18U C23U gave a self-cleavage of 0.12. Work on G5A C23A G35U yielded a self-cleavage of 0.17. G5A C23A G36C showed a self-cleavage of 0.21. G5A C23A G44U gave a self-cleavage of 0.04. For G5A C23A U28C U38A, the self-cleavage was 0.01. For G5A C31A C42A, the self-cleavage was 0.05. G5A C31A G35A C37A showed a self-cleavage of 0.12. With G5A C31A G44A the self-cleavage was 0.03. G5A C31G G36C gave a self-cleavage of 0.04. Variant G5A C31G U32G has a self-cleavage of 0.09. Work on G5A C31U C42A yielded a self-cleavage of 0.04. Variant G5A C37A C45A has a self-cleavage of 0.19. Variant G5A G7A C18A G27A has a self-cleavage of 0.36. G5A G7A G17U gave a self-cleavage of 0.3. With G5A G7A G40U the self-cleavage was 0.71. Variant G5A G7A U9C C15A G21U U32A has a self-cleavage of 0.02. G5A G7C C18U G33C gave a self-cleavage of 0.06. G5A G7C G17A U32A A39G C46G gave a self-cleavage of 0.04. Variant G5A G7C G33U has a self-cleavage of 0.1. With G5A G7C U38A the self-cleavage was 0.05. G5A G7U C8U U34G gave a self-cleavage of 0.87. Work on G5A G7U C10G C18U A41C yielded a self-cleavage of 0.01. With G5A G7U C37A the self-cleavage was 0.31. For G5A G7U G33U, the self-cleavage was 0.15. Variant G5A G17A G33A has a self-cleavage of 0.07. In the case of G5A G17A G35C U38C, the self-cleavage is reported as 0.06. In the case of G5A G17C A26U U28G, the self-cleavage is reported as 0.06. For G5A G17C G33A, the self-cleavage was 0.03. Variant G5A G17C G35U has a self-cleavage of 0.03. G5A G17U A25C gave a self-cleavage of 0.08. G5A G17U A25G G27C U32G G40C gave a self-cleavage of 0.04. G5A G19A C23A G29C showed a self-cleavage of 0.04. In the case of G5A G19A G35U G36C, the self-cleavage is reported as 0.07. For G5A G19A U28G A39U G44A, the self-cleavage was 0.05. Variant G5A G19A U38G A39C has a self-cleavage of 0. Variant G5A G19U G21A U28G C45A has a self-cleavage of 0.02. With G5A G21C C46A the self-cleavage was 0.19.
